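Interpolation was linear, between the two tested concentrations surrounding the appropriate level; five concentrations were tested over 48 hours in 96-well plates. GI50 is the concentration that inhibits growth by half.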 The source made the active and inactive calls. No stated cut-off is given here; in the data, active = GI50 up to about 1.1 µM and inactive = higher.
Each molecule was assayed on NCI-H322M (assay: DTP human tumour cell line panel, 48 h).

Compound | GI50
Cc1ccc2c(c1)C(C(=O)N[C@@H]1C(=O)N3[C@@H]1SC(C)(C)[C@@H]3C(=O)O)OCCC2 (stereo not given in full) | inactive: > 100 µM
c1ccc2c(c1)CN1CCCC1CN2 (stereo not given) | inactive: > 100 µM
CCOC(=O)C(=[N+]=[N-])C(=O)CN1C(=O)c2ccccc2C1=O | inactive: > 100 µM
COCOc1ccc(C(=O)Oc2cccc3c2OC(C)(C)O3)c(OCOC)c1 | inactive: > 100 µM
Cc1ccc(OCC2OC(n3cnc4c(Cl)nc(N)nc43)CC2Oc2ccc(C)cc2)cc1 (stereo not given) | inactive: 31.8 µM
CCOP(=O)(C=C=C1CCC2[C@@H]3CCc4cc(OC)ccc4C3CC[C@]12C)OCC (stereo not given in full) | inactive: 16.7 µM
Cc1c(C)c2cc3c(=O)c(CCl)coc3c(C)c2oc1=O | inactive: > 100 µM
CC(C)(C)c1ccc(-c2nnc(SCc3ccc(Cl)cc3)n2-c2cccc(C(F)(F)F)c2)cc1 | inactive: 34.7 µM
COc1cc2oc(-c3ccc(O)cc3)cc(=O)c2c(OC)c1O | inactive: 84.7 µM
CN(C)/C=C/c1ccncc1 | inactive: > 100 µM
Cn1c2ccccc2n2c3ncccc3c(=O)c(C#N)c12 | inactive: 22.2 µM
O=C(/C=C/c1ccc2ccccc2c1)NCc1ccc(C(=O)NCc2ccccc2)cc1 | inactive: > 100 µM
COc1ccc(CC2NCCc3cc(OC)c(OC)cc32)cc1 (stereo not given) | inactive: > 100 µM
CC(C)NC(=O)OCc1c(COC(=O)NC(C)C)n(C)c2c1ccc1ccccc12 | inactive: 4.9 µM
C=CCSC1=N/C(=C\c2ccc(Cl)cc2)C(=O)N1CC=C | inactive: 49.9 µM
COc1ccc2[nH]c3c(c2c1)CC(=O)N1CCC[C@H](C1)CC31OCCCO1 | inactive: > 100 µM
O=C(COC(=O)c1cccc2c(=O)c3ccccc3[nH]c12)Nc1ccc(C(=O)O)cc1 | inactive: 63.2 µM
CCC1=C(C)/C(=C/c2[nH]c(C(Br)Br)c(CC)c2C)N=C1C(Br)Br | inactive: 27.7 µM
N#Cc1c(-c2cccc(Br)c2)cc(-c2ccc(Cl)cc2)nc1N | inactive: 31.1 µM
CC(=O)OC1CC2C(C)(C)C(=O)C=C[C@]2(C)C2CCC3(C)C(c4ccoc4)C(=O)C4OC43[C@]12C (stereo not given in full) | inactive: 22.8 µM
COc1ccc(Oc2nc3c(N)cc(C(F)(F)F)cc3nc2-c2ccccc2)cc1 | inactive: 25.2 µM
Cc1ccccc1OC(C)C(=O)NN1C(=O)CC(=O)N(c2ccc(Cl)cc2)C1=S (stereo not given) | inactive: 34.8 µM
CO/N=C(\C(=O)O/C(=N/C1CCCCC1)NC1CCCCC1)c1csc(NC(c2ccccc2)(c2ccccc2)c2ccccc2)n1 | inactive: > 10 µM

Compound | GI50
O=C(O)c1ccccc1Cc1ccco1 | inactive: > 100 µM
Cc1ccc(S(=O)(=O)OC2C3OC(C)(C)OC3OC2C(c2cc(O)c3c(c2O)C(=O)c2ccccc2C3=O)c2cc(O)c3c(c2O)C(=O)c2ccccc2C3=O)cc1 (stereo not given) | inactive: > 10 µM
C[C@]12CC[C@@H]3c4ccc(O)cc4CC[C@H]3[C@@H]1C/C(=C\c1ccc(C#N)cc1)C2=O | inactive: 48.4 µM
CCCCCCCCCCCCCCCC[N+](C)(C)Cc1ccc(C[N+](C)(C)CCCCCCCCCCCCCCCC)cc1 | inactive: 2.94 µM
NC(=O)Cc1ncn(-c2ccccc2)n1 | inactive: > 100 µM
CC1CC(N)=Nc2ccccc2N1Cc1ccccc1 (stereo not given) | inactive: 29 µM
Cn1c(=O)c2c(nc3n(C)c(=O)c4ccccc4n23)n(C)c1=O | inactive: > 100 µM
CC(=O)c1nc2ccccc2n1C(C)C(=O)c1ccccc1 (stereo not given) | inactive: 82.8 µM
O=C(CCN1CCN2c3ccccc3CCC2C1)c1ccc(F)cc1 (stereo not given) | inactive: > 100 µM
CC1=C[C@H]([C@H]2C=C(C)C(C(N)=O)=CN2Cc2c(Cl)cccc2Cl)N(Cc2c(Cl)cccc2Cl)C=C1C(N)=O | inactive: > 75 µM
COc1cc(O)c2c(c1)C(=O)c1cc3c(c(O)c1C2=O)C(OC1OC(C)C(OC)C(O)C1OC)C(OC)C(C)(O)C3=O (stereo not given) | inactive: 5.9 µM
C[N+](C)(C)CCC(=O)CC[N+](C)(C)C | inactive: 89.3 µM
COc1ccc2c(c1)C1=NCCN(C)c3ccc([N+](=O)[O-])c(c31)N2 | inactive: 1.26 µM
O=C1C=Cc2c(Cl)sc(Cl)c21 | inactive: 15 µM
O=C1Cc2c(-c3ccccc3)cc(-c3cccc(Cl)c3)nc2-c2ccccc2N1 | inactive: 2.11 µM
O=C(NCCCN(CCCCN(CCCNC(=O)C(F)(F)F)CCCc1ccccc1)CCCc1ccccc1)C(F)(F)F | inactive: 1.89 µM
O=C1C2c3[nH]c4ccccc4c3C3CCCCC3C2C(=O)N1c1ccccc1 (stereo not given) | inactive: > 100 µM
O=C(CCc1ccc(O)c(O)c1)c1ccc(O)c(O)c1O | inactive: 59.3 µM
O=C1COCCN1C(=O)c1ccccc1Cl | inactive: > 100 µM
CCc1c(C)c(C#N)c(=S)n(C2OC(CO)C(O)C(O)C2O)c1C (stereo not given) | inactive: > 100 µM
CC1(C)CCC2=C(O1)/C(=N\Nc1ccc(S(N)(=O)=O)cc1)c1ccccc1C2=O | inactive: 13.7 µM
CC1=CC(O)CC(C)(C)C1/C=C/C(C)=C/C=C/C(C)=C/C=C/C=C(C)/C=C/C=C(C)/C=C/C1=C(C)CC(O)CC1(C)C (stereo not given) | inactive: > 100 µM

Reference: ChEMBL document CHEMBL1201862, “PubChem BioAssay data set” (2004)
